Data reported in PubChem BioAssay AID360 (National Center for Advancing Translational Sciences (NCATS), 2006).
In all, about 48,000 compounds went through this assay and about 550 (1.1%) were called active. Inconclusive results (about 4%) are left out. Rule as the data show it: active = potency below about 15 µM; inconclusive = mostly about 16 µM to 33 µM; inactive = weaker than that. The list shows a part of the results.

target: Lysosomal acid glucosylceramidase (Homo sapiens) (UniProt P04062); experiment: Glucocerebrosidase; conditions: purified enzyme, resorufin glucoside fluorescence (screen aimed at inhibitors), 20 min; series mostly up to 77 µM;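 also: the screen sought inhibitors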
How it was run: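 Wild-type enzyme at 0.2 nM final in 50mM citric acid/KH2PO4, 10mM sodium taurocholate, 0.01% tween-20, pH 5.9, with resorufin beta-D-glucopyranoside at 30 uM final. Compounds titrated, 20 min at RT, red fluorescence read; AC50 from titration.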
Potency is read from the fitted curve at half-maximal effect.

UniProt P04062, sequence (P04062 whole entry, looked up): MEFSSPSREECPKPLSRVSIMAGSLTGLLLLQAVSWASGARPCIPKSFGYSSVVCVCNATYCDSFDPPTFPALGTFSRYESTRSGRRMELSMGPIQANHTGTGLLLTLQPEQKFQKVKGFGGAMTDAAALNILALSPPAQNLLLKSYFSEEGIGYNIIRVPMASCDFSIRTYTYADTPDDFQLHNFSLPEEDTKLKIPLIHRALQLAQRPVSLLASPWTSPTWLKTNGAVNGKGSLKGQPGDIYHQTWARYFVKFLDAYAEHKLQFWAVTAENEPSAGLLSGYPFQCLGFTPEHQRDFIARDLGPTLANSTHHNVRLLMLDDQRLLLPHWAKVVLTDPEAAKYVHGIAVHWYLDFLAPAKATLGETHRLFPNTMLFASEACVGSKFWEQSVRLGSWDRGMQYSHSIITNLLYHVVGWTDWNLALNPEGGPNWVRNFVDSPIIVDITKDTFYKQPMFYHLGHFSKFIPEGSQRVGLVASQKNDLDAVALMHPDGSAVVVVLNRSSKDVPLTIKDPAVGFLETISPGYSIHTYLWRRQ

Potency, inactive:
COC(=O)[C@H](CCSC)NC(=O)Nc1ccc(C(C)=O)cc1 > 76.9 µM
CC1=C(C(=O)OC(C)C)C(c2ccccc2Cl)CC(=O)N1 (stereo not drawn) > 76.9 µM
c1ccc(OCCOc2ccccc2-c2nnco2)cc1 > 76.9 µM
O=c1[nH]c2cc3c(cc2cc1CN(Cc1nnnn1CC1CCCO1)C1CCCCC1)OCO3 (stereo not drawn) > 76.9 µM
CN(C)c1ccc(C2NCCS2)cc1 (stereo not drawn) > 76.9 µM
Cn1cccc1-c1nc2ccccc2n1Cc1ccccc1 > 76.9 µM
C=C(C)CSc1nnc(CCNC(=O)OC(C)(C)C)o1 > 76.9 µM
O=c1[nH]c(CN2CCc3ccccc32)nc2scc(-c3cccs3)c12 > 76.9 µM
Cc1cc(C(=O)COC(=O)c2n[nH]c3ccccc23)c(C)n1C > 76.9 µM
COc1ccc2c(c1)nc1n2CN(CC2CCCO2)CN1Cc1ccccc1 (stereo not drawn) > 76.9 µM
O=C(c1ccccc1)N1CCCC(c2nc3c(nnn3Cc3ccccc3)c(=O)[nH]2)C1 (stereo not drawn) > 76.9 µM
O=C(Cn1nc(Cl)nc1Cl)c1cc2ccccc2oc1=O > 76.9 µM
CC(C)OCCCNC(=O)CCN1C(=O)COc2ccccc21 > 76.9 µM
COc1cc(NS(=O)(=O)c2ccc(C)cc2)c2ncccc2c1 > 76.9 µM
Cc1ccc2c(c1)N(CC(=O)c1cccc(Cl)c1)C(=O)C(C)O2 (stereo not drawn) > 76.9 µM
Cc1ccc2cc(CN(CC(C)C)C(=O)C3CCCO3)c(=O)[nH]c2c1 (stereo not drawn) > 76.9 µM
COC(=O)c1ccc(NS(=O)(=O)c2cc(C)ccc2OC)cc1 > 76.9 µM
CCN(CC)C(=O)CSc1nc2ccccc2c(=O)n1-c1ccccc1OC > 76.9 µM
CSCC[C@H](NC(=O)NCCc1ccc(F)cc1)C(=O)O > 76.9 µM
COC(=O)C1C(=O)C2=C(CC1C)NC(C)=C(C(=O)OCc1ccc(OC)cc1)C2c1ccc(C)o1 (stereo not drawn) > 76.9 µM
O=C(NCc1cccnc1)C1CC(=O)N(C2CCCCC2)C1 (stereo not drawn) > 76.9 µM
Cc1noc(C)c1CSc1ccccc1C(=O)N1CCN(c2ccccc2)CC1 > 76.9 µM
COC(=O)c1sccc1NC(=O)c1ccco1 > 76.9 µM
COc1ccc(C2CC(=O)C3=C(C2)Nc2ncnn2C3c2ccccc2C)cc1 (stereo not drawn) > 76.9 µM
CCOC(=O)CSc1nnc(CCc2nc3ccccc3[nH]2)n1C > 76.9 µM
CCOC(=O)c1cccc(-n2c(C)nc3ccccc3c2=O)c1 > 76.9 µM
O=C(CCCNS(=O)(=O)c1cccs1)N1CCN(c2cccc(Cl)c2)CC1 > 76.9 µM
COc1cc(-c2nnc(-c3ccc(S(=O)(=O)c4ccccc4)cc3)o2)cc(OC)c1OC > 76.9 µM
CCNc1nc(NC(C)C)nc(NS(=O)(=O)c2ccc(Cl)cc2)n1 > 76.9 µM
Cc1nc2c(C(=O)O)cnn2c(C)c1Cc1ccccc1F > 76.9 µM
Cc1ccc2cc(C#N)c(N3CCCN(C(=O)C4CCCO4)CC3)nc2c1C (stereo not drawn) > 76.9 µM
O=C(c1ccco1)N1CCN(C2CC(=O)N(c3ccc4c(c3)OCO4)C2=O)CC1 (stereo not drawn) > 76.9 µM
CSc1nc(NCC(C)C)nc(N2CCOCC2)n1 > 76.9 µM
CS(=O)(=O)N1CCC(C(=O)NCc2ccco2)CC1 > 76.9 µM
N#CCCn1ncc2ccccc21 > 76.9 µM
NC(=O)C1CCN(c2oc(-c3ccccc3F)nc2S(=O)(=O)c2ccc(Cl)cc2)CC1 > 76.9 µM
CN1C(=O)C2(c3ccccc31)N(C)CC(c1ccccn1)C21SC(=S)N(Cc2ccco2)C1=O (stereo not drawn) > 76.9 µM
CCOC(=O)n1c(=O)oc2cc(S(=O)(=O)N3CCCCC3)ccc21 > 76.9 µM
COc1cccc(CNC(=O)CCNS(=O)(=O)c2cccs2)c1 > 76.9 µM
CCn1c(NC(=O)c2cccs2)c(-c2cccs2)c(=O)c2ccccc21 > 76.9 µM
COc1ccc(OC)c2[nH]c(=O)c(CCNS(=O)(=O)c3ccc(Cl)cc3)cc12 > 76.9 µM
Cc1cc(C)nc(-n2nc(C)cc2NC(=O)c2cc(=O)c3ccccc3o2)n1 > 76.9 µM
CCOC(=O)c1c(NC(=O)COC)sc(C(C)=O)c1C > 76.9 µM
Cc1occc1-c1nnc(SCC(=O)NCc2cccs2)n1CC1CCCO1 (stereo not drawn) > 76.9 µM
CSCC[C@H](NC(=O)C1CCN(S(=O)(=O)c2ccc(C)cc2)CC1)C(=O)NCC1CCCO1 (stereo partly drawn) > 76.9 µM
CCOC(=O)C1CCN(C(=O)CSCc2nc(-c3ccc(OCC)cc3)oc2C)CC1 > 76.9 µM
O=C(CN1CCN(c2ccccc2)CC1)Nc1nnc(-c2ccccc2)s1 > 76.9 µM
Cc1nc2sc(-c3ccccc3)cc2c(=O)n1-n1cccc1 > 76.9 µM
O=C(Cn1[nH]c(=O)c2ccccc2c1=O)OCC(=O)N1CCc2ccccc2C1 > 76.9 µM
COc1ccc(-c2nnc(SCC(=O)Nc3cc(C)on3)n2C)cc1OC > 76.9 µM
CC(=O)Nc1cccc(OC(=O)c2ccoc2C)c1 > 76.9 µM
O=C(Nc1ccccc1N1CCCCC1)c1ncoc1-c1ccc(F)cc1
Cc1ccccc1NC(=O)Cc1nnc(SCC(=O)N2CCN(c3ccccc3)CC2)n1C > 76.9 µM
COc1ccc(CCNC(=O)CNCC2CCCO2)cc1OC (stereo not drawn) > 76.9 µM
COc1cc(OC)cc(C(=O)Nc2ccc(S(=O)(=O)N(C)C)cc2)c1 > 76.9 µM
c1ccc(CNc2c3c(nc4ncnn24)CCCC3)nc1 > 76.9 µM
CC(=O)N(C)C1(c2nnnn2CCOC(=O)Nc2ccc(Cl)cc2)CCCCC1 > 76.9 µM
CN1CCCCc2c1nc1c(c2N)CCCC1 > 76.9 µM
Cc1ccc2c(c1)N(CC(=O)NC1CCCc3ccccc31)C(=O)CO2 (stereo not drawn) > 76.9 µM
COCCN(C(=O)CCCC(=O)Nc1ccccn1)C(C(=O)NC1CCCCC1)c1ccc(C)cc1 (stereo not drawn) > 76.9 µM
O=C(Nc1cccc(NC(=O)c2nccc3ccccc23)c1)c1ccco1 > 76.9 µM
COC(=O)c1cn(C(C)C(=O)NCc2ccco2)c2ccccc12 (stereo not drawn) > 76.9 µM
CCOC(=O)C(NC(=O)CC)(Nc1ccc(S(=O)(=O)Nc2onc(C)c2C)cc1)C(F)(F)F (stereo not drawn) > 76.9 µM
CC(C)OC(=O)CSc1nnc(-c2cccnc2)n1Cc1ccccc1 > 76.9 µM
CCCc1[nH]nc2c1C(c1ccc(O)c(OC)c1)C(C#N)=C(N)O2 (stereo not drawn) > 76.9 µM
COc1cc(-c2nnc(SCC(=O)N(Cc3ccccc3)C(C)(C)C)o2)cc(OC)c1OC > 76.9 µM
COC(=O)c1ccccc1NC(=O)Cn1cnc2c(cnn2-c2ccccc2)c1=O > 76.9 µM
CC(NS(=O)(=O)c1ccc(OCC(=O)N2CCOCC2)cc1)c1ccccc1 (stereo not drawn) > 76.9 µM
COc1ccc(C(=O)CSc2nnnn2Cc2ccccc2)cc1 > 76.9 µM
CCc1ccc(NC(=O)CS(=O)CC(=O)NC(C)CCc2ccco2)cc1 (stereo not drawn) > 76.9 µM
O=C(O)CSCc1cnn(-c2ccccc2)c1-n1cccc1 > 76.9 µM
COc1cc(NC(=O)C23CC4CC(C2)CC(n2nnc(C)n2)(C4)C3)c(OC)cc1Cl > 76.9 µM
Cc1nc(C)c2c(=O)cc(-c3ccccc3)[nH]c2n1 > 76.9 µM
O=C(C1CCN(S(=O)(=O)N2CCOCC2)CC1)N1CCN(Cc2ccccc2)CC1 > 76.9 µM
COc1ccc(Oc2ncnc3c2ncn3Cc2ccccc2)cc1 > 76.9 µM
C=CCn1c(SCC(=O)NCc2ccc3c(c2)OCO3)nnc1C1COc2ccccc2O1 (stereo not drawn) > 76.9 µM
O=C(CN1CCN(c2ccccn2)CC1)Nc1cc(C(F)(F)F)ccc1Cl > 76.9 µM
CC(=O)NC(Cc1c[nH]c2ccccc12)C(=O)N1CCc2ccccc2C1 (stereo not drawn) > 76.9 µM
COCCNC(=O)c1ccc(CS(=O)(=O)c2ccc(Cl)cc2)o1 > 76.9 µM
O=C(CSc1nnc(Cc2ccccc2)n1-c1ccccc1)N1CCOCC1 > 76.9 µM
CC(CN1CCOCC1)OC(=O)c1ccc(Br)cc1 (stereo not drawn) > 76.9 µM
O=S(=O)(c1ccc(N2CCN(S(=O)(=O)c3ccc4c(c3)OCCO4)CC2)nc1)N1CCCC1 > 76.9 µM
Cc1nnc2c3cnn(-c4ccc(Cl)cc4)c3ncn12 > 76.9 µM
CC(=O)Nc1ccc(S(=O)(=O)n2cnc(C)c2)cc1 > 76.9 µM
C/C(Cl)=C\Cn1c(=O)c2c(nc3n2CCS3)n(C)c1=O > 76.9 µM
Cc1ccc(CNC(=O)C2c3ccccc3C(=O)N3CCc4ccccc4C23)o1 (stereo not drawn) > 76.9 µM
CSCCC(NS(=O)(=O)c1cccs1)C(=O)NCc1cccs1 (stereo not drawn) > 76.9 µM
COc1ccc(N2CCN(C(=O)CSc3nnc4nc(C)cc(C)n34)CC2)cc1 > 76.9 µM
